# The list shows a part of the results.
# B1: ABA (Agaricus bisporus), Q00022 (protein)
# chain: MTYTISIRVYQTTPKGFFRPVERTNWKYANGGTWDEVRGEYVLTMGGSGTSGSLRFVSSDTDESFVATFGVHNYKRWCDIVTNLTNEQTALVINQEYYGVPIRDQARENQLTSYNVANAKGRRFAIEYTVTEGDNLKANLIIG
# What was measured:
# Assay in all cases: glycan array binding signal (z-score within array); higher = stronger binding
# Details in all cases: glycan notation: IUPAC condensed, linker removed
# [1] = biological target: Gal(a1-3)Gal(b1-3)GlcNAc(b1-6)GalNAc
# In short: (§1)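 The Consortium for Functional Glycomics database supplied 3228 glycan arrays, of which those lacking an available protein sequence were dropped. The binding signal, a within-array Z-score, was averaged across arrays of the same protein sequence and across linkers. Negative scores can be read as non-binding.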
# [2] = biological target: Gal(a1-3)Gal(b1-3)[Fuc(a1-4)]GlcNAc(b1-2)Man(a1-3)[Gal(a1-3)Gal(b1-3)[Fuc(a1-4)]GlcNAc(b1-2)Man(a1-6)]Man(b1-4)GlcNAc(b1-4)GlcNAc
# In short: as §1
# Gal(a1-3)Gal(b1-4)Glc = biological target: Gal(a1-3)Gal(b1-4)Glc
# In short: as §1
# Gal(a1-3)Gal(b1-4)GlcNAc = biological target: Gal(a1-3)Gal(b1-4)GlcNAc
# In short: as §1
# [3] = biological target: Gal(a1-3)Gal(b1-4)GlcNAc(b1-2)Man
# In short: as §1
# [4] = biological target: Gal(a1-3)Gal(b1-4)GlcNAc(b1-2)Man(a1-3)[Gal(a1-3)Gal(b1-4)GlcNAc(b1-2)Man(a1-6)]Man(b1-4)GlcNAc(b1-4)GlcNAc
# In short: as §1
# [5] = biological target: Gal(a1-3)Gal(b1-4)GlcNAc(b1-3)GalNAc
# In short: as §1
# [6] = biological target: Gal(a1-3)Gal(b1-4)GlcNAc(b1-6)GalNAc
# In short: as §1
# [7] = biological target: Gal(a1-3)Gal(b1-4)[Fuc(a1-3)]GlcNAc
# In short: as §1
# [8] = biological target: Gal(a1-3)Gal(b1-4)[Fuc(a1-3)]GlcNAc(b1-2)Man(a1-3)[Gal(a1-3)Gal(b1-4)[Fuc(a1-3)]GlcNAc(b1-2)Man(a1-6)]Man(b1-4)GlcNAc(b1-4)GlcNAc
# In short: as §1
# Gal(a1-3)GalNAc = biological target: Gal(a1-3)GalNAc
# In short: as §1
# [9] = biological target: Gal(a1-3)[Gal(a1-4)]Gal(b1-4)GlcNAc
# In short: as §1
# [10] = biological target: Gal(a1-4)Gal(b1-3)GlcNAc(b1-2)Man(a1-3)[Gal(a1-4)Gal(b1-3)GlcNAc(b1-2)Man(a1-6)]Man(b1-4)GlcNAc(b1-4)GlcNAc
# In short: as §1
# Gal(a1-4)Gal(b1-4)Glc = biological target: Gal(a1-4)Gal(b1-4)Glc
# In short: as §1
# Gal(a1-4)Gal(b1-4)GlcNAc = biological target: Gal(a1-4)Gal(b1-4)GlcNAc
# In short: as §1
# [11] = biological target: Gal(a1-4)Gal(b1-4)GlcNAc(b1-2)Man(a1-3)[Gal(a1-4)Gal(b1-4)GlcNAc(b1-2)Man(a1-6)]Man(b1-4)GlcNAc(b1-4)GlcNAc
# In short: as §1
# [12] = biological target: Gal(a1-4)Gal(b1-4)GlcNAc(b1-3)Gal(b1-4)Glc
# In short: as §1
# Gal(a1-4)GlcNAc = biological target: Gal(a1-4)GlcNAc
# In short: as §1
# Gal(a1-6)Glc = biological target: Gal(a1-6)Glc
# In short: as §1
# Gal(b1-2)Gal = biological target: Gal(b1-2)Gal
# In short: as §1
# Gal(b1-3)Gal = biological target: Gal(b1-3)Gal
# In short: as §1
# Gal(b1-3)Gal(b1-4)GlcNAc = biological target: Gal(b1-3)Gal(b1-4)GlcNAc
# In short: as §1
# Gal(b1-3)GalNAc = biological target: Gal(b1-3)GalNAc
# In short: as §1
# [13] = biological target: Gal(b1-3)GalNAc(a1-3)[Fuc(a1-2)]Gal(b1-4)Glc
# In short: as §1
# [14] = biological target: Gal(b1-3)GalNAc(a1-3)[Fuc(a1-2)]Gal(b1-4)GlcNAc
# In short: as §1
# Gal(b1-3)GalNAc(b1-3)Gal = biological target: Gal(b1-3)GalNAc(b1-3)Gal
# In short: as §1
# [15] = biological target: Gal(b1-3)GalNAc(b1-3)Gal(a1-4)Gal(b1-4)Glc
# In short: as §1
# [16] = biological target: Gal(b1-3)GalNAc(b1-4)Gal(b1-4)Glc
# In short: as §1
# [17] = biological target: Gal(b1-3)GalNAc(b1-4)[Neu5Ac(a2-3)]Gal(b1-4)Glc
# In short: as §1
# Gal(b1-3)GlcNAc = biological target: Gal(b1-3)GlcNAc
# In short: as §1
# [18] = biological target: Gal(b1-3)GlcNAc(a1-3)Gal(b1-4)GlcNAc
# In short: as §1
# [19] = biological target: Gal(b1-3)GlcNAc(a1-6)Gal(b1-4)GlcNAc
# In short: as §1
# Gal(b1-3)GlcNAc(b1-2)Man = biological target: Gal(b1-3)GlcNAc(b1-2)Man
# In short: as §1
# [20] = biological target: Gal(b1-3)GlcNAc(b1-2)Man(a1-3)[Gal(b1-3)GlcNAc(b1-2)Man(a1-6)]Man(b1-4)GlcNAc(b1-4)GlcNAc
# In short: as §1
# [21] = biological target: Gal(b1-3)GlcNAc(b1-2)Man(a1-3)[Gal(b1-3)GlcNAc(b1-2)Man(a1-6)]Man(b1-4)GlcNAc(b1-4)[Fuc(a1-6)]GlcNAc
# In short: as §1
# [22] = biological target: Gal(b1-3)GlcNAc(b1-2)Man(a1-3)[GlcNAc(b1-4)][Gal(b1-3)GlcNAc(b1-2)Man(a1-6)]Man(b1-4)GlcNAc(b1-4)GlcNAc
# In short: as §1
# [23] = biological target: Gal(b1-3)GlcNAc(b1-2)[Gal(b1-3)GlcNAc(b1-6)]Man(a1-6)[Gal(b1-3)GlcNAc(b1-2)Man(a1-3)]Man(b1-4)GlcNAc(b1-4)GlcNAc
# In short: as §1
# [24] = biological target: Gal(b1-3)GlcNAc(b1-3)Gal(b1-3)GlcNAc
# In short: as §1
# [25] = biological target: Gal(b1-3)GlcNAc(b1-3)Gal(b1-4)Glc
# In short: as §1
# [26] = biological target: Gal(b1-3)GlcNAc(b1-3)Gal(b1-4)GlcNAc
# In short: as §1
# [27] = biological target: Gal(b1-3)GlcNAc(b1-3)Gal(b1-4)GlcNAc(b1-2)Man(a1-3)[Gal(b1-3)GlcNAc(b1-3)Gal(b1-4)GlcNAc(b1-2)Man(a1-6)]Man(b1-4)GlcNAc(b1-4)GlcNAc
# In short: as §1
# [28] = biological target: Gal(b1-3)GlcNAc(b1-3)Gal(b1-4)GlcNAc(b1-2)[Gal(b1-3)GlcNAc(b1-3)Gal(b1-4)GlcNAc(b1-6)]Man(a1-6)[Gal(b1-3)GlcNAc(b1-3)Gal(b1-4)GlcNAc(b1-2)Man(a1-3)]Man(b1-4)GlcNAc(b1-4)[Fuc(a1-6)]GlcNAc
# In short: as §1
# [29] = biological target: Gal(b1-3)GlcNAc(b1-3)Gal(b1-4)GlcNAc(b1-3)Gal(b1-4)GlcNAc(b1-2)[Gal(b1-3)GlcNAc(b1-3)Gal(b1-4)GlcNAc(b1-3)Gal(b1-4)GlcNAc(b1-6)]Man(a1-6)[Gal(b1-3)GlcNAc(b1-3)Gal(b1-4)GlcNAc(b1-3)Gal(b1-4)GlcNAc(b1-2)Man(a1-3)]Man(b1-4)GlcNAc(b1-4)[Fuc(a1-6)]GlcNAc
# In short: as §1
# [30] = biological target: Gal(b1-3)GlcNAc(b1-3)Gal(b1-4)GlcNAc(b1-6)[Gal(b1-3)GlcNAc(b1-3)]Gal(b1-4)Glc
# In short: as §1
# [31] = biological target: Gal(b1-3)GlcNAc(b1-3)Gal(b1-4)[Fuc(a1-3)]GlcNAc
# In short: as §1
binder,measurement,setting,value
B1,glycan array binding signal (z-score),[1],-0.206
same,glycan array binding signal (z-score),[2],0.344
same,glycan array binding signal (z-score),Gal(a1-3)Gal(b1-4)Glc,-0.202
same,glycan array binding signal (z-score),Gal(a1-3)Gal(b1-4)GlcNAc,-0.212
same,glycan array binding signal (z-score),[3],-0.227
same,glycan array binding signal (z-score),[4],-0.189
same,glycan array binding signal (z-score),[5],-0.227
same,glycan array binding signal (z-score),[6],-0.239
same,glycan array binding signal (z-score),[7],-0.206
same,glycan array binding signal (z-score),[8],-0.213
same,glycan array binding signal (z-score),Gal(a1-3)GalNAc,-0.118
same,glycan array binding signal (z-score),[9],-0.28
same,glycan array binding signal (z-score),[10],-0.216
same,glycan array binding signal (z-score),Gal(a1-4)Gal(b1-4)Glc,-0.198
same,glycan array binding signal (z-score),Gal(a1-4)Gal(b1-4)GlcNAc,-0.199
same,glycan array binding signal (z-score),[11],-0.263
same,glycan array binding signal (z-score),[12],-0.249
same,glycan array binding signal (z-score),Gal(a1-4)GlcNAc,-0.216
same,glycan array binding signal (z-score),Gal(a1-6)Glc,-0.167
same,glycan array binding signal (z-score),Gal(b1-2)Gal,-0.096
same,glycan array binding signal (z-score),Gal(b1-3)Gal,-0.188
same,glycan array binding signal (z-score),Gal(b1-3)Gal(b1-4)GlcNAc,-0.268
same,glycan array binding signal (z-score),Gal(b1-3)GalNAc,0.383
same,glycan array binding signal (z-score),[13],3.56
same,glycan array binding signal (z-score),[14],3.27
same,glycan array binding signal (z-score),Gal(b1-3)GalNAc(b1-3)Gal,-0.28
same,glycan array binding signal (z-score),[15],-0.187
same,glycan array binding signal (z-score),[16],-0.236
same,glycan array binding signal (z-score),[17],-0.251
same,glycan array binding signal (z-score),Gal(b1-3)GlcNAc,-0.243
same,glycan array binding signal (z-score),[18],-0.285
same,glycan array binding signal (z-score),[19],-0.27
same,glycan array binding signal (z-score),Gal(b1-3)GlcNAc(b1-2)Man,-0.228
same,glycan array binding signal (z-score),[20],0.246
same,glycan array binding signal (z-score),[21],-0.167
same,glycan array binding signal (z-score),[22],-0.15
same,glycan array binding signal (z-score),[23],-0.214
same,glycan array binding signal (z-score),[24],-0.259
same,glycan array binding signal (z-score),[25],-0.241
same,glycan array binding signal (z-score),[26],-0.216
same,glycan array binding signal (z-score),[27],-0.219
same,glycan array binding signal (z-score),[28],-0.175
same,glycan array binding signal (z-score),[29],-0.165
same,glycan array binding signal (z-score),[30],-0.319
same,glycan array binding signal (z-score),[31],-0.245

# — the supplement of paper PMC8728848
